The record followed here is the supplement of paper PMC3334620.

The full ranking holds about 33,000 sequences; the median of “E-score (-0.5 to 0.5)” is about -0.036, and the highest 2% start at about 0.37. The list shows a part of the results.

The target in the assay is T1, Yer064c (UniProt P40041).
T1 sequence: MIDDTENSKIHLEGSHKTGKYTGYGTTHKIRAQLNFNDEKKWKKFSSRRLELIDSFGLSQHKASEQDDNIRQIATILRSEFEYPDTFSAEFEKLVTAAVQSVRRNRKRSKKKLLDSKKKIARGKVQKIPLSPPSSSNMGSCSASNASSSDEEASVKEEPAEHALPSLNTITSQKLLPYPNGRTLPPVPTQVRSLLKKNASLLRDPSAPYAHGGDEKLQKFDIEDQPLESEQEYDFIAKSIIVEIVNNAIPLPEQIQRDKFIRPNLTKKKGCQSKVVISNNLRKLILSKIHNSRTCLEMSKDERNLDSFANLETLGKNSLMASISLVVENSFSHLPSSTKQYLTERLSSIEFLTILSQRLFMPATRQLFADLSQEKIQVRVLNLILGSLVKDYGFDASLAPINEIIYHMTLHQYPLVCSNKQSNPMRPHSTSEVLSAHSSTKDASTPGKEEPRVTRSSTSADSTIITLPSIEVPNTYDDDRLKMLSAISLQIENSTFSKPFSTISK
Nature of the assay: PBM E-score (8-mer binding enrichment) (E-score (-0.5 to 0.5)); higher = stronger / more preferred TF binding; most listed sequences are background and not binding sites. Particulars: protein concentration: 200 nM; construct: GST-full length. On the procedure: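 Universal 'all 10-mer' protein binding microarrays (Agilent AMADID 015681) probed with GST-tagged S. cerevisiae TFs (full-length or DBD) made by in vitro transcription/translation (PURExpress), about 100-200 nM. Bound TF was detected with fluorescent anti-GST. Each ungapped 8-mer (which stands for itself and its reverse complement) is scored by the PBM enrichment score (E-score), a modified Wilcoxon-Mann-Whitney statistic from -0.5 to +0.5, computed with the Universal PBM Analysis Suite. Scale: above 0.35 generally sequence-specific binding.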
Take AATCCCTA: the “PBM E-score” value is -0.185.
Next, AGCCTGGA: -0.0581; AGACAGAC: 0.169.
Next, AGGGTCAG: -0.0512; CTCAACTA: 0.189; GTAGACTA: 0.286.
Next, ATATAGAA: 0.0478; CCTTGGGA: -0.102; ACTTACCA: -0.053.
As for TAATAGAA, the “PBM E-score” value came out at 0.0796.
Next, AGTCGAGG: 0.0213; ACCCCGAC: 0.0675; CGGGCTAA: -0.0897.
Next, AGTTGTCA: 0.0701; TAGACACA: 0.0513.
TCTATCCA: the “PBM E-score” value was 0.0446.
Next, ACTTATCA: 0.0775; ATAAGGGG: -0.235; TAATGCCA: 6e-05.
Next, GCCTCAAC: -0.22; CGATGCAG: -0.113.
Next, GAATCAAA: 0.268; ATACTTAC: 0.0356; ACTTCCTG: 0.0153.
With AAGAAGAA, the “PBM E-score” value is 0.0162.
For the sequence GCGATATA, the “PBM E-score” value is -0.0593.
Next, ATGTCGCA: 0.0105; AGTCGTTG: 0.326; ATACGCGC: -0.0263.
For CGGAACAC, the “PBM E-score” value is 0.124.
Next, CAGAGGGA: -0.199.
Regarding CCTACCGC, the “PBM E-score” value was -0.171.
Next, AGGTGTTC: -0.0778; CAGGGGGG: -0.233.
Next, AGCTATTG: 0.00415; GATAGAGC: -0.209; TGCCAAAA: 0.00043.
Next, ACTTTACG: 0.151; AAAGTTCA: -0.0917; CGTGGGAA: -0.0695.
For GTATTAAC, the “PBM E-score” value is 0.234.
Next, ATCCACTG: -0.109; ACAGCTAG: -0.234.
Take TAGCGGAA: the “PBM E-score” value was -0.0839.
Next, ATATGGAT: 0.0955; ACCTTGCT: -0.13; CGGCACGC: -0.307.
Consider GGGGATCA, for which the “PBM E-score” value was -0.142.
Next, AAAGTCCC: -0.235; CAAAGCAC: 0.0195.
As for CTGTCTTC, the “PBM E-score” value stood at 0.0916.
Next, ACTTCGGG: -0.0277; CCAATTGC: -0.288.
Take GGGCTTGA: the “PBM E-score” value turned out to be 0.0139.
Next, ACACAGGG: -0.0982; AACCTGAA: -0.037; CATGGCAA: -0.056.
Next, TGCTGTAA: 0.0257; CCAACTAG: 0.058.
Next, TTCAACAA: 0.0961; GCCGAACA: -0.137.
On to AAATTATT, for which the “PBM E-score” value was found to be 0.126.
Next, CCCGAATA: -0.225; AAGTAGAC: 0.048; CATAGTGG: -0.088.
Next, AGAAGCAG: -0.1; ACAAGGTG: 0.0291.
Next, GACGAGGA: 0.00926; AGCCGTGG: -0.149.
For CTCTGGTA, the “PBM E-score” value was determined as 0.0753.
Take AGATCGTC: the “PBM E-score” value is -0.175.
Next, TATCGCGA: 0.0847; ACCAACTG: -0.097.
Next, AGGCCGAA: -0.147.
Next, GACATTAC: -0.0177; ATGATGAA: 0.226; GGCGATAA: -0.181.
On to CACATCCC, for which the “PBM E-score” value stood at 0.017.
With ATTTAGCC, the “PBM E-score” value was found to be 0.213.
For CCATTTAC, the “PBM E-score” value is -0.0793.
Next, ACCACTAT: -0.0491.
Next, AAAGAGGT: 0.0563.
Next, ACCCAGCG: -0.126; ACTGAGGA: 0.11; AAGGGATT: -0.1.
On to ATTTTGAA, for which the “PBM E-score” value is 0.0946.
